Laboratory results reported in PMC4336329 (PLoS ONE, 2015).
The campaign covered roughly 310,000 compounds. About 14,000 (4.5%) showed an effect of 50% or more. Effects have a minus sign here. This is one part of the list.

target: human ether-à-go-go-related gene (hERG) potassium channel (human, UniProt Q12809); test: primary screen, population patch clamp on CHO cells stably expressing hERG
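Note: peak tail current of the secondary pulse compared with the same well before compound.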

human ether-à-go-go-related gene (hERG) potassium channel, sequence (Q12809 whole entry, looked up): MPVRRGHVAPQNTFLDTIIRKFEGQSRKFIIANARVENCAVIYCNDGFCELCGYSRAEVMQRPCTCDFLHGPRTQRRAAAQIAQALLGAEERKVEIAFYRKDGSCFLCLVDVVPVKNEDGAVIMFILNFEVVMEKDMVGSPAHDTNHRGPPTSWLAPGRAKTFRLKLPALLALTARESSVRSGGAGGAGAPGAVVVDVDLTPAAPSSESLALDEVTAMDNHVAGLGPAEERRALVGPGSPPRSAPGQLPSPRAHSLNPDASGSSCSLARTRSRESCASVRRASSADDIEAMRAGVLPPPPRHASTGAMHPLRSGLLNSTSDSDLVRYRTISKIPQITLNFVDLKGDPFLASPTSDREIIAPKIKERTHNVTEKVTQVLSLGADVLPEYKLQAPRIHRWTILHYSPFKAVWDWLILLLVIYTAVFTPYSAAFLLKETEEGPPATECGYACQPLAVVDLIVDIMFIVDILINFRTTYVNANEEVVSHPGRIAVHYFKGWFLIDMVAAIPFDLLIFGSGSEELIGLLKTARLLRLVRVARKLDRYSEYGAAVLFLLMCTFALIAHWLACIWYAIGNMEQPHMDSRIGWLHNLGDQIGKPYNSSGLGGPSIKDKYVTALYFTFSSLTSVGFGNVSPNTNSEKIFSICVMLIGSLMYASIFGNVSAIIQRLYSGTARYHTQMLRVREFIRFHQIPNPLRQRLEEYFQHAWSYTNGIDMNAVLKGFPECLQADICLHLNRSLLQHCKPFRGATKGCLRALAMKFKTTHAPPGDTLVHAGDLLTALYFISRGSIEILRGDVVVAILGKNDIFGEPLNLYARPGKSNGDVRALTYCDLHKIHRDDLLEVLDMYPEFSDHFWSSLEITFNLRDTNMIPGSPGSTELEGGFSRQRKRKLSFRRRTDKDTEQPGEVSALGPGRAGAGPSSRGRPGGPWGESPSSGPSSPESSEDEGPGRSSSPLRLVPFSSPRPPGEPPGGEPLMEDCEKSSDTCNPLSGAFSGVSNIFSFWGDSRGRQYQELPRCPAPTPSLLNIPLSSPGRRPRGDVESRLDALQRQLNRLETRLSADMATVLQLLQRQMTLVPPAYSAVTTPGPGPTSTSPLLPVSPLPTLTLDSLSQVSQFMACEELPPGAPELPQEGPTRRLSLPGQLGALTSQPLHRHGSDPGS

Row | Structure (SMILES) | hERG current change (%, negative = inhibition) at 10uM [%]
1 | O=S1(=O)c2cccc3cccc(c23)N1Cc1ccc(-c2nnco2)cc1 | 7.2
2 | O=C(Nc1c2c(nn1-c1ccc(F)cc1)CS(=O)(=O)C2)c1ccc(S(=O)(=O)N2CCOCC2)cc1 | 12.1
3 | CC(=O)Nc1ccc2c(c1)C(=O)N(c1cccc3ccccc13)C2=O | -9.32
4 | CC(=O)N(c1ccc(C)cc1)S(=O)(=O)c1ccc(Cl)cc1 | 6.03
5 | O=c1[nH]c(SCCOc2ccccc2F)nc2ccccc12 | 12.6
6 | Cc1ccc2c(c1)C1CN(C)CCC1N2C(=O)c1cccs1 (stereo not shown) | -22
7 | COCCCNC(=S)N(Cc1cccnc1)Cc1ccc(OC)c(OC)c1 | 12.4
8 | CCOCCCn1c(=S)[nH]c2cc(C(=O)NCC(OC)OC)ccc2c1=O | 10.3
9 | O=C(c1ccc2c(c1)OCO2)N1CCC2(CC1)Oc1ccc(Cl)cc1C(=O)C21CC(c2ccccc2)=NO1 (stereo not shown) | -3.51
10 | N#Cc1ccccc1NC(=O)CC1CCCCC1 | 0.146
11 | CCc1ccc(OCc2n[nH]c(=S)n2Cc2ccccc2)cc1 | -9.87
12 | NS(=O)(=O)c1ccc2nc(NC(=O)c3ccc4ncsc4c3)sc2c1 | 5.34
13 | CC(=O)OCCCN1C(=O)c2ccc(Br)cc2C1=O | -8.99
14 | COC(=O)C1=C(N)Oc2c(c(=O)oc3ccccc23)[C@]12C(=O)N(C)c1ccccc12 | -8.19
15 | COc1ccc(S(=O)(=O)N2CCCCC2)cc1NC(=O)c1cc(C)on1 | 19.3
16 | N#Cc1ccc(C(=O)NNC(=O)c2ccncc2)cc1 | 19.1
17 | COc1cccc(NC(=O)CCN2CCOCC2)c1.Cl | 15.4
18 | O=CNc1ccccc1Oc1ccccc1 | 0.412
19 | CCOC(=O)c1ccc(NC(=O)CNC(=O)C2CCCCC2)cc1 | -35.2
20 | COc1ccccc1N1CCN(C(=O)CSc2nc3ccccc3nc2N2CCCCC2)CC1 | 19
21 | O=C(N/N=C/C=C/c1ccccc1)c1ccccn1 | -19.2
22 | O=C(NCCN1CCOCC1)c1ccc(Cl)c([N+](=O)[O-])c1 | 16.5

Row | Structure (SMILES) | hERG current change (%, negative = inhibition) at 10uM [%]
23 | CCOC(=O)c1c(S(=O)(=O)N(C)C2CCCCC2)c(C)n(C)c1C | -5.03
24 | COc1ccc(C(CNC(=O)COc2cccc(C(F)(F)F)c2)N2CCCC2)cc1 (stereo not shown) | -41.4
25 | COc1ccc(CC(=O)Nc2ccc(S(=O)(=O)N3CCCCC3)cc2)cc1OC | -6.86
26 | COc1cc(/C=N/NC(=O)c2cc[n+]([O-])cc2)cc(OC)c1OC | 4.7
27 | O=C(N/N=C/c1ccc(O)cc1O)c1ccc(NC(=O)C2CCCCC2)cc1 | 34.5
28 | O=C(CSc1n[nH]c(-c2ccccc2)n1)Nc1ncccn1 | -3.98
29 | Cc1ccc(NC(=O)CS(=O)CC(=O)N(CC(=O)NC2CCCC2)c2cccc(C)c2C)cc1 (stereo not shown) | -24.3
30 | COC(=O)c1cccc(NS(=O)(=O)c2ccc(OC)cc2)c1C | -1.48
31 | COc1ccc(OC)c(Cc2nnc(CCC(=O)NCc3ccsc3)o2)c1 | -2
32 | COc1cccc(C(=O)OCc2cc(=O)oc3c(C)c(C)ccc23)c1OC | -0.395
33 | CCCC(=O)Nc1nc2nc(C)cc(=O)n2[nH]1 | 1.2
34 | O=C(NCCCN1CCOCC1)c1ccc(CS(=O)(=O)c2ccc(Br)cc2)o1 | -6.32
35 | COC(=O)c1ccc(NC(=S)NC(=O)c2cccnc2)cc1 | 19.5
36 | CCOC(=O)C(Cc1ccc(NC(=O)/C(=C\c2ccccc2)NC(=O)c2ccccc2)cc1)N1C(=O)c2ccccc2C1=O (stereo not shown) | 13.3
37 | COc1ccc(CN2CCN(Cc3ccccc3OC)CC2)cc1.O=C(O)C(=O)O | 2.68
38 | CCC(=O)Nc1cccc(C2=NOC3(C2)C[C@@H](C(N)=O)N(C(=O)c2cc([N+](=O)[O-])cc([N+](=O)[O-])c2)C3)c1 (stereo partly shown) | 10.7
39 | CCN(CC)S(=O)(=O)c1cc(NC(=O)CN2C(=O)NC(C)(c3ccccc3)C2=O)ccc1C (stereo not shown) | -16.8
40 | O=C(CSc1nc2c(cnn2-c2ccccc2)c(=O)[nH]1)N1CCOCC1 | -14.5
41 | OCCC1CN(Cc2cnn(-c3ccc(F)cc3)c2)CCN1Cc1ccsc1 (stereo not shown) | -65.7
42 | COc1cc(C[C@@H](CO)[C@H](CO)Cc2ccc(O)c(OC)c2)ccc1O | -8.47
43 | O=C(Cn1c(SCc2ccccc2)nc2ccccc21)N1CCOCC1 | 3.15
44 | COc1ccc(CNC(=O)[C@@H](NC(=O)C2CCN(S(=O)(=O)c3ccc(C)cc3)CC2)C(C)C)cc1OC | 15.4

Row | Structure (SMILES) | hERG current change (%, negative = inhibition) at 10uM [%]
45 | COc1ccc(C(=O)Nc2cc(Cl)cc(Cl)c2)c(OC)n1 | 12.9
46 | COc1ccc(C(=O)OCC(=O)c2ccccc2)cc1S(=O)(=O)N1CCOCC1 | -14.7
47 | COc1ccc(NC(=O)CSCC(=O)NC2(C)CCS(=O)(=O)C2)cc1 (stereo not shown) | 25.3
48 | O=C(NCCCn1ccnc1)/C(=C/c1ccco1)NC(=O)c1ccco1 | -45.6
49 | O=C(Nc1nccs1)c1cc(N2CCOCC2)nc2ccccc12 | -4.9
50 | CCc1ccc(OCC(=O)O/N=C(\N)c2cccnc2)cc1 | -0.434
51 | NC(=O)c1cc(S(=O)(=O)N2CCOCC2)cs1 | 19.3
52 | Cn1nnnc1SCC(=O)N1CCN(C(=O)c2ccco2)CC1 | -9.62
53 | CC(=O)NCCc1ccc(S(=O)(=O)NCc2ccc3c(c2)OCO3)cc1 | 2.45
54 | CCc1nnc(NC(=O)CSc2nnc(C)n2-c2ccc(C)cc2)s1 | -0.562
55 | O=C(CSc1c(Cl)cccc1Cl)NC1CCCc2ccccc21 (stereo not shown) | 1.5
56 | c1ccc2nc(N3CCCC3)c(N3CCCC3)nc2c1 | 7.86
57 | C=CCSc1nc2c(c(=O)[nH]1)C(c1ccccc1)C(C#N)=C(N)O2 (stereo not shown) | 2.58
58 | OC1CCN(Cc2ccc(OCc3ccccc3)cc2)CC1 | -5.07
59 | Cn1ccnc1C(O)c1cccc(OCc2ccccc2)c1 (stereo not shown) | -0.621
60 | CC1CCCC(C)N1C(=O)COC(=O)c1ccc(F)c(S(=O)(=O)N2CCOCC2)c1 (stereo not shown) | 9.83
61 | NS(=O)(=O)c1cccc(NC(=O)CSc2nc3ccccc3n2-c2ccccc2)c1 | 13.2
62 | O=C(CSc1ccc(F)cc1)Nc1ccc(Br)cc1 | 16.2
63 | COc1ccc(C(=O)NNC(=O)CCn2nnc(-c3ccc(Cl)cc3)n2)cc1OC | 19
64 | COc1ccccc1NS(=O)(=O)c1cccc(NC(=O)c2nc3nc(C)cc(C)n3n2)c1 | -55.2
65 | CCCn1c(C)cc(C(=O)CN2C(=O)c3cccc(N)c3C2=O)c1C | -1.83
66 | C[C@@H](NC(=O)[C@@H]1Cc2ccccc2CN1C(=O)OC(C)(C)C)C(=O)NC1CCCC1 | -7.3

Row | Structure (SMILES) | hERG current change (%, negative = inhibition) at 10uM [%]
67 | CC(C)(O)[C@H]1O[C@H]2CC[C@@]3(C)[C@@](O)(CC[C@H]4Cc5c([nH]c6ccccc56)[C@@]43C)C2=CC1=O | 15.2
68 | CCn1c(=O)c2cc(C(=O)Nc3ccc(OC)cc3OC)sc2c2ccccc21 | 6.99
69 | CCC(C)(C)C1CCc2nc3ccccc3c(C(=O)OC(C)C(=O)Nc3c(C)n(C)n(-c4ccccc4)c3=O)c2C1 (stereo not shown) | 7.37
70 | O=C(c1nnc(-c2ccc(Cl)cc2)o1)C1CCCC1 | 20.2
71 | O=C1S/C(=C\C=C\c2ccco2)C(=O)N1c1ccc(O)cc1 | 12.1
72 | COc1ccc2c(c1)O[C@@]1(CCCC[C@@H]1C)CC2=O | -1.09
73 | CCC(=O)NC(=S)NNC(=O)c1ccccc1[N+](=O)[O-] | 21.2
74 | CN1CCN(C(=O)CCc2nc3ccccc3c(=O)[nH]2)CC1 | 21.9
75 | COc1ccc(/[N+]([O-])=C/c2ccoc2)cc1 | 18.9
76 | Cc1ccc(NC(=O)CSc2nnc(CNC(=O)c3c(F)cccc3Cl)o2)cc1 | 3.28
77 | CC(C)c1ccc(NC(=O)C(c2ccccc2)N2CCOCC2)cc1 (stereo not shown) | -12.2
78 | O=S(=O)(c1ccc(F)c(F)c1F)N1CCN(C(=S)NCc2ccccc2)CC1 | 21.3
79 | COc1cc(-c2cc3nc4ccccc4n3c(N)c2C#N)cc(OC)c1OC | -12.9
80 | O=C(N/N=C/c1ccc(-c2cccc(C(F)(F)F)c2)o1)c1ccccc1Br | 3.21
81 | O=C(c1ccco1)N1CCN(Cc2nnc(-c3ccccc3)o2)CC1 | -55.5
82 | O=C(c1ccco1)N1CCN(Cc2cc(=O)c(OCc3ccc([N+](=O)[O-])cc3)co2)CC1 | -76.2
83 | N#C/C(=C\c1ccc(-c2cccc([N+](=O)[O-])c2)o1)C(=O)N1CCOCC1 | -6.75
84 | Cc1cc(C)cc(-n2c(=O)c3sccc3n(CC(=O)NCc3ccco3)c2=O)c1 | -9
85 | COc1ccccc1C(=O)Nc1ccc2c(c1)nc(CCNC(=O)c1ccccc1)n2C | -10.4
